# The other results are listed elsewhere or left out. These are noisy estimates, calculated here from bound and input reads.
# Molecular target: T1, Pho4 (S. cerevisiae) (UniProt P07270)
# T1 sequence: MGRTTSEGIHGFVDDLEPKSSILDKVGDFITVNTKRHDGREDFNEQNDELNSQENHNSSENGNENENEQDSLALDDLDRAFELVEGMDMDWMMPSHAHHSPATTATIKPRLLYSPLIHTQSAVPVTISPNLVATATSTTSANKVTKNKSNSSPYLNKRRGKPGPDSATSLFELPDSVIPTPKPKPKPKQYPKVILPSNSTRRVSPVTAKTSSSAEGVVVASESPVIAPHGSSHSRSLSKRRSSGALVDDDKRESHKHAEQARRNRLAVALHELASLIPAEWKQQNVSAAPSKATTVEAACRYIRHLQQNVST
# Experiment: relative binding free energy (BET-seq); higher = weaker binding
# Details: reference: library average
row,Sequence,relative binding free energy [kcal/mol]
1,ATCGTCACGTGTAGTT,0.19
2,GGTACCACGTGTGGTT,0
3,TTATGCACGTGCAAGG,0.02
4,AGCTGCACGTGTCTGG,0.13
5,AGAAACACGTGTTTTT,0.01
6,GTAGACACGTGGTAAG,0.04
7,CAGTTCACGTGATGTA,0.3
8,GGTCTCACGTGGGGGA,0.15
9,GTTGCCACGTGGGTGT,-0.22
10,TATGTCACGTGAATCT,0.54
11,GTTTGCACGTGGTTCA,0.06
12,GTGCTCACGTGTGTCG,0.31
13,TGGACCACGTGGGGTT,-0.21
14,TAGCACACGTGATGGT,0.05
15,TGAGGCACGTGCGCGT,-0.23
16,TAAGTCACGTGTGCTG,0.06
17,TGTTCCACGTGTTCTG,-0.01
18,GGGTACACGTGTTGAG,0.21
19,AAGTTCACGTGAATAT,0.36
20,TTATGCACGTGTCTTA,-0.15
21,TGTCGCACGTGTTTGA,-0.15
22,TGAGGCACGTGGTACG,-0.23
23,GTGTACACGTGGTGCT,0.04
24,AATTTCACGTGAGCAT,0.49
25,CATTGCACGTGGGTAG,-0.31
26,TACGACACGTGTTTGG,0.11

row,Sequence,relative binding free energy [kcal/mol]
1,TTATCCACGTGGTATT,-0.11
2,CTTTTCACGTGGGTAA,0.04
3,GGGGGCACGTGTAATG,0.04
4,GTGCCCACGTGATGTG,0.21
5,AGTGTCACGTGCTTGA,-0.01
6,TGGCTCACGTGAACGG,0.31
7,TAAGCCACGTGGGGTC,-0.16
8,TTATACACGTGTTCAG,0.05
9,TGGTACACGTGCCTGG,-0.09
10,TGATTCACGTGTAGTT,0.43
11,TGCACCACGTGGGTGT,-0.3
12,TGTAGCACGTGGCAAT,-0.23
13,TTGTCCACGTGTGGTG,-0.04
14,TACGGCACGTGAGAGG,0.05
15,ATAGGCACGTGGTCTT,-0.14
16,GCATTCACGTGTGTCT,0.42
17,TTCGGCACGTGTTGTT,-0.05
18,TTGGCCACGTGTTATA,-0.04
19,GTGGCCACGTGTGATG,0
20,GGGTGCACGTGCTTTT,0.03
21,TACGTCACGTGGGGCT,-0.16
22,GAGGGCACGTGTTGAA,-0.03
23,TGTTCCACGTGAGGAG,0.18
24,CGGGGCACGTGTGGAC,0.03
25,GTTTACACGTGTTAAT,0.11
26,TAAGACACGTGTAATT,0.21

row,Sequence,relative binding free energy [kcal/mol]
1,GGCTGCACGTGGCATG,-0.09
2,GTTTGCACGTGGTGTC,-0.01
3,TAGTTCACGTGATGAC,0.36
4,TCTGTCACGTGTGGGT,0.12
5,TGGTCCACGTGGGAAA,-0.03
6,GGATACACGTGGGAGT,-0.09
7,GTTGACACGTGTGACG,0.18
8,AGGTGCACGTGCGGTT,-0.06
9,GTGTTCACGTGGGTTT,0.23
10,CGAGTCACGTGAGGTG,0.35
11,CGCGGCACGTGTTGTA,-0.11
12,GATGTCACGTGTGTAT,0.17
13,TGCGACACGTGGGGTG,-0.16
14,CCTGTCACGTGGGCTG,0.05
15,GAGGGCACGTGTGATA,-0.05
16,GTGCGCACGTGACGGG,0.12
17,TATTACACGTGGGAAG,-0.03
18,GGAGTCACGTGATTTG,0.44
19,GTTATCACGTGAGGTA,0.37
20,TAGACCACGTGGGGAG,-0.11
21,TGCGTCACGTGTTGGG,0.09
22,GGTGGCACGTGATTTT,0.25
23,TCGTGCACGTGTGTTC,0.05
24,GGAAACACGTGATTGT,0.08
25,TGTTCCACGTGCGGTT,0.04
26,ATATGCACGTGGGTCT,-0.2

row,Sequence,relative binding free energy [kcal/mol]
1,ATGTGCACGTGCTCGT,-0.2
2,GGGTACACGTGGGTTA,-0.01
3,ATGGGCACGTGATTAT,0.12
4,TGTGCCACGTGATTGA,0.07
5,TCGTGCACGTGCTGTA,-0.03
6,CTGGTCACGTGCGTTT,0.04
7,TAGGGCACGTGCAAGG,-0.16
8,ATACTCACGTGTTTTT,0.13
9,ATTTACACGTGCATGG,0.17
10,TTAACCACGTGGTGGG,-0.1
11,TGGTGCACGTGCCCGG,-0.23
12,GTTGACACGTGGAACG,0.14
13,CGTGACACGTGTTGGA,-0.04
14,CTTTCCACGTGTTGGT,0.11
15,TTGTCCACGTGAGGTT,0.19
16,TTGTGCACGTGTTGCA,0.05
17,AATGACACGTGAAGTG,0.3
18,TAGGTCACGTGTCGGT,0.11
19,TAGTTCACGTGAAATT,0.45
20,CAAGTCACGTGTTAGG,0.19
21,TCATGCACGTGAATTG,0.33
22,GTGAACACGTGGGCGG,-0.16
23,TTATTCACGTGCAAGG,0.35
24,TGATGCACGTGGATGC,-0.1
25,TGTGTCACGTGTGATG,0.16
26,AGTGCCACGTGTTATT,-0.14

row,Sequence,relative binding free energy [kcal/mol]
1,GTCTACACGTGGGTAT,0.02
2,GTATGCACGTGGTGGA,-0.05
3,ATAGCCACGTGGGTAG,-0.27
4,CGGGGCACGTGGCAGC,-0.14
5,GGGCACACGTGAACGG,0.32
6,GAAGACACGTGGCGTG,-0.05
7,TTTTACACGTGGATCG,0.22
8,AGGGGCACGTGGACTA,-0.12
9,AATTTCACGTGGTGGA,0.2
10,GTGGACACGTGTTGAC,0.07
11,TGTAACACGTGCGTGA,0.02
12,GGGTACACGTGTAGTA,0.22
13,AGTCGCACGTGCGTTT,0.03
14,GTGTGCACGTGCGTCT,-0.01
15,TAGTTCACGTGTAGTG,0.11
16,CTGTTCACGTGTGCTG,0.17
17,ATTTGCACGTGTTCTA,-0.17
18,GTGGGCACGTGGGCAT,-0.14
19,CGTGGCACGTGAGATT,0.18
20,TGGGTCACGTGGACGG,0.03
21,CGTTTCACGTGGTATG,0.23
22,AGATTCACGTGACTGT,0.33
23,TGTAGCACGTGGAATA,-0.04
24,CCTTTCACGTGGGTTG,0.19
25,TCATACACGTGTGTGT,-0.2
26,GCATTCACGTGGATGG,0.27

row,Sequence,relative binding free energy [kcal/mol]
1,CGGAACACGTGGCGGT,0.05
2,TGACACACGTGGTTGT,-0.08
3,TAATGCACGTGTTGGC,0.07
4,GGTATCACGTGGCTAT,0.13
5,CAGGACACGTGGAGTG,0.02
6,ATCGGCACGTGTTTAA,-0.02
7,TAGATCACGTGGTGTT,0.05
8,AGGATCACGTGAGGTA,0.22
9,GGCGACACGTGGGCGG,-0.02
10,TACAGCACGTGGGGGA,-0.19
11,AAAACCACGTGTTGGG,0.19
12,TGGAACACGTGGGTAG,-0.08
13,CGCGTCACGTGTCTGG,0.17
14,TGGGGCACGTGGACTG,-0.14
15,TTTTTCACGTGCGAGA,0.34
16,CGGCGCACGTGTGGGA,-0.21
17,ATTATCACGTGGTATA,-0.08
18,GGGTCCACGTGGGGCG,-0.08
19,TTTGGCACGTGCGGGG,-0.09
20,GGGTGCACGTGTGTCC,0.02
21,GCCAGCACGTGGGGTG,-0.39
22,GGCTTCACGTGGTGGT,0.31
23,ATTGTCACGTGTGTGT,0.07
24,TTGTACACGTGAGGTT,0.14
25,TCTATCACGTGAAGGG,0.47
26,ATATGCACGTGGTTAT,-0.15

row,Sequence,relative binding free energy [kcal/mol]
1,TGAAGCACGTGAGATA,0.31
2,GGCGTCACGTGTATGA,0.1
3,AGTGACACGTGAGTAA,0.35
4,TGTCTCACGTGTGTAG,0.16
5,CTAGGCACGTGATTGG,0.03
6,TTGCTCACGTGATGTA,0.26
7,GTTGGCACGTGGATTA,0.05
8,AGTCTCACGTGGTCTT,0.19
9,TAGGTCACGTGGATAC,0.18
10,TGTTGCACGTGTTTGC,-0.07
11,GGGCGCACGTGGTTCT,-0.02
12,TAGTCCACGTGTAAGG,0.13
13,GGTCTCACGTGGTGCT,0.26
14,TTCGGCACGTGGATGT,0.01
15,GGTGTCACGTGAGATT,0.28
16,TCTTTCACGTGATGAG,0.49
17,GTATGCACGTGGTCAT,-0.24
18,ATGATCACGTGGGGGG,0.14
19,AGGTTCACGTGCTGAG,0.29
20,TCTCACACGTGGGGGG,-0.01
21,TTACGCACGTGGATTG,-0.08
22,AGTTGCACGTGGGGAG,-0.02
23,GCGGACACGTGTCGGG,0.08
24,AGCGGCACGTGAATGG,0.23
25,TTTAACACGTGTTGCT,0.02
26,TGGTGCACGTGGGCAC,-0.23

row,Sequence,relative binding free energy [kcal/mol]
1,TGTTGCACGTGTCTCT,0
2,ATGGGCACGTGTATTA,-0.04
3,GTGGTCACGTGTGCAT,0.14
4,TCATGCACGTGGTTTG,-0.16
5,ACTTTCACGTGTAGTT,0.19
6,AGAATCACGTGATGGT,0.17
7,TAGGACACGTGTAGAG,0.08
8,TAAGTCACGTGTGTTT,0.15
9,ATGTTCACGTGAATTC,0.44
10,GCGGGCACGTGTGGTT,0.01
11,GTGTTCACGTGATTCT,0.38
12,GTGTCCACGTGTTATT,0.06
13,TAATGCACGTGTGTGG,-0.08
14,AATATCACGTGCTGTT,0.12
15,AGAATCACGTGAGATT,0.45
16,TGAATCACGTGTTTAA,0.16
17,GGTTGCACGTGCTGTG,0.06
18,TGTGACACGTGATAGT,0.29
19,TGGTACACGTGGTGTA,-0.07
20,TGGTGCACGTGTACCG,-0.04
21,AATGGCACGTGAGCGG,0.17
22,TGTTGCACGTGCTAGC,0
23,ATGTACACGTGGTCTG,-0.15
24,TGGTACACGTGGGGAG,-0.11
25,TGAGACACGTGTGAGG,0
26,AAAGGCACGTGGAAGG,-0.1

row,Sequence,relative binding free energy [kcal/mol]
1,TTTGACACGTGAAGAT,0.23
2,ATATGCACGTGGGCTT,-0.22
3,GTAGGCACGTGAAGTT,0.23
4,ATGCACACGTGTGGAG,0.06
5,TCGGTCACGTGTGACG,0.3
6,TGGAGCACGTGTTATG,-0.11
7,GTTATCACGTGAATGG,0.37
8,TCATACACGTGTTAGT,-0.01
9,GTTAGCACGTGTGTTA,0.06
10,ATAGACACGTGTGTCT,0.07
11,GTTTTCACGTGGGCTA,0.19
12,GGGTTCACGTGATTGC,0.45
13,TAGGTCACGTGGGAGA,0.04
14,TGATACACGTGGGCGT,-0.14
15,GTGGTCACGTGGGAGT,0.07
16,TTCAGCACGTGATGTA,0.08
17,TAATACACGTGTTGAT,0.13
18,GCTATCACGTGTGGTA,0.29
19,CAGGGCACGTGCGCGT,-0.26
20,GGTGCCACGTGTTACT,0.12
21,AGGGGCACGTGACGGC,-0.18
22,AAGGGCACGTGGTAAT,-0.27

# Source: the BET-seq Pho4 binding data (Le et al. 2018)
